PubChem BioAssay AID624296 (National Center for Advancing Translational Sciences (NCATS), 2012)
About 9,900 (2.8%) of roughly 350,000 compounds were called active. The inconclusive results got no clear call from the source; some entries with a clear call stand among them for comparison. The call rests on the fitted dose curve; in most records, active means well fitted activation curve with a large enough effect; inconclusive means small, poorly fitted or top-dose-only effect; inactive means no such curve, though single readings can be large or run the other way. Potencies of inconclusive entries are left out as doubtful fits.

experiment: A quantitative high throughput screen for small molecules that induce DNA re-replication in MCF 10a normal breast cells.; further: nearly all actives have a fitted effect of over 50% in size; on activity, positive = re-replication: % of control where 0% means no effect; settings: MCF 10A DNA re-replication, Hoechst nuclear intensity, 48 h; activity, positive = re-replication: at 46.1 µM (top of the series)
Potency means the concentration at half of the fitted maximal effect; tags describe the fitted curve by direction and shape.

Row | SMILES | Potency | activity, positive = re-replication
1 | CCC(C)N(C(=O)COC(=O)c1[nH]c(C)c(C(C)=O)c1C)C1CCS(=O)(=O)C1 (configuration not stated) | inconclusive [activator, partial curve, poor fit] | 
2 | Cc1ccc(/C=N/NC(=O)c2cc3c(ccc4ccccc43)o2)cc1[N+](=O)[O-] | inconclusive [activator, full curve, poor fit] | 
3 | CCOC(=O)c1ccccc1NC(=O)CN(c1ccccc1)S(=O)(=O)N(C)C | inconclusive [activator, single point] | 
4 | O=C(O)c1ccccc1-c1nc(-c2ccccc2)c(-c2ccccc2)[nH]1 | inconclusive [activator, single point] | 
5 | CC(O)CNCc1ccc(-c2ccccc2)cc1 (configuration not stated) | inconclusive [activator, single point] | 
6 | CC1CCN(CCCCOc2ccc(C(C)(C)C)cc2)CC1 |  | inactive: -1.8%
7 | Cc1[nH]c2ccc(-c3n[nH]c(=S)n3-c3ccccc3)cc2c1C | inconclusive [activator, partial curve, poor fit] | 
8 | CC1CCN(c2ccccc2NC(=S)NC(=O)C(C)(C)C)CC1 | inconclusive [activator, single point] | 
9 | COC(=O)c1ccccc1NC(=O)C1CCN(C(=O)c2ccc(OC)cc2)CC1 | inconclusive [activator, single point] | 
10 | Nc1ncncc1-c1ccc2ccccc2c1 |  | inactive: -2.03%
11 | Cc1cc(=O)[nH]c(N/N=C/c2cc(C)n(CC(F)(F)F)c2C)n1 | inconclusive [activator, partial curve, poor fit] | 
12 | CCOC(=O)/C(=C\C=C1/Sc2cc(OCC)c(OCC)cc2N1CC)C(C)=O |  | inactive: 0.413%
13 | Fc1ccc(NC(=S)NC2CCCCC2)c(F)c1F |  | inactive: 18.4%
14 | O=C(Cn1nc(Cc2ccncc2)c2ccccc2c1=O)Nc1cccnc1Cl |  | inactive: -0.483%
15 | Cc1cccc(NC(=S)NC2CC3CCCC(C2)N3Cc2ccccc2)c1C (configuration not stated) | inconclusive [activator, partial curve, poor fit] | 
16 | COc1ccccc1NC(=S)N(Cc1ccco1)Cc1cc2cc(C)cc(C)c2[nH]c1=O | active: 13 µM | 
17 | Cc1ccc(NC(=O)c2ccc(NC(=O)c3ccccc3)cc2)cc1C |  | inactive: 24.1%
18 | Cn1c(SCC(=O)NCCc2ccccc2)ncc(C(=O)Nc2ccccc2)c1=O |  | inactive: 15%
19 | Oc1c(CN2CCc3ccccc3C2)cc(Cl)c2cccnc12 | inconclusive [activator, single point] | 
20 | Cc1ccc(P(=O)(CSC(=N)N)c2ccc(C)cc2)cc1 | inconclusive [activator, single point] | 
21 | CC(C)N(Cc1nc(-c2ccc(Cl)cc2)no1)C(=O)/C=C/c1ccccc1 | inconclusive [activator, partial curve, poor fit] | 
22 | C/C(=N\Nc1ccc(Cl)c(C(=O)O)c1)c1ccc(Br)s1 | inconclusive [activator, partial curve, poor fit] | 
23 | O=C(N/N=C\c1ccc([N+](=O)[O-])s1)c1cncc(Br)c1 | active: 7.31 µM | 
24 | COc1ccc(OC)c(NC(=O)CN(Cc2ccccc2)S(C)(=O)=O)c1 | active: 1.03 µM | 

Row | SMILES | Potency | activity, positive = re-replication
25 | COc1cccc(/C=N/NC(=O)c2nnn(-c3nonc3N)c2C(C)C)c1OCc1ccc(F)cc1 | active: 20.6 µM | 
26 | CCS(=O)(=O)N1CCN=C1SCc1ccc(F)cc1 |  | inactive: 3.18%
27 | CN(c1ccc(C(=O)Nc2ccccn2)cc1)S(=O)(=O)c1ccccc1 |  | inactive: 5.79%
28 | CCCn1nc(NS(=O)(=O)c2cccc3nonc23)c2cc3cccc(C)c3nc21 | inconclusive [activator, single point] | 
29 | COc1cc(OC)cc(C(=O)c2c(C)c(C#N)c3ccccn23)c1 | inconclusive [activator, partial curve, poor fit] | 
30 | COC(=O)C1=C(C(=O)OC)[C@@H]2Nc3ccccc3[C@@]23C[C@@H](C(=O)OC)N(C(=O)CC(C)C)C3=N1 |  | inactive: -2.76%
31 | C=CCc1cccc(C=Nc2ccc(Br)cc2)c1O |  | inactive: -2.44%
32 | COc1cc(/C=N/NC(=O)c2ccncc2)cc(OC)c1OC | inconclusive [activator, partial curve, poor fit] | 
33 | Cc1ncc(C[n+]2csc(CCOP(=O)(O)O)c2C)c(N)n1 |  | inactive: -1.72%
34 | Cc1nn(-c2ccccn2)c2c1C(c1ccccc1Cl)C1=C(N2)c2ccccc2C1=O (configuration not stated) | inconclusive [activator, full curve, poor fit] | 
35 | Cc1ccc(CNC(=O)c2cc(-c3ccccc3C)nn2CC2CC(c3cccnc3)=NO2)cc1 (configuration not stated) | inconclusive [activator, partial curve, poor fit] | 
36 | c1ccc(C2=Nn3c(Cn4nnc5ccccc54)nnc3SC2)cc1 | inconclusive [activator, full curve, poor fit] | 
37 | CCCNC(=O)c1sc2c(c1C(=O)Nc1ccccn1)CCCC2 | inconclusive [activator, partial curve, poor fit] | 
38 | Cc1ccc(-c2nn(-c3ccccc3)cc2/C=C(\C#N)c2cccc(C#N)c2)o1 | inconclusive [activator, partial curve] | 
39 | Cc1ccc(NC(=O)c2cnc(N3CCN(c4ccccn4)CC3)c3ccccc23)c(Br)c1 | active: 18.4 µM | 
40 | CCN(CC)Cc1c(O)c(Cl)cc2c(C)cc(=O)oc12 | inconclusive [activator, single point] | 
41 | O=c1[nH]n(-c2cccc3cccnc23)c(=O)c2ccccc12 |  | inactive: -0.166%
42 | O=C(NCCN1CCN(c2ccccc2)CC1)Nc1cccc(Cl)c1 | inconclusive [activator, partial curve, poor fit] | 
43 | COC(=O)[C@H](C)N(Cc1ccc(Cl)c(Cl)c1)S(=O)(=O)CCN1CCCC1 | inconclusive [activator, full curve] | 
44 | Cc1ccc(NC(=O)CN2C(=O)NC3(CCCCCC3)C2=O)cc1Cl | inconclusive [activator, single point] | 
45 | CCN(CC(=O)Nc1ccc(NC(C)=O)cc1)C(=O)/C=C/c1cccs1 | inconclusive [activator, single point] | 
46 | CCC(C(=O)NCc1ccco1)N(C(=O)CNS(=O)(=O)c1ccccc1)C1CCCCC1 (configuration not stated) | active: 4.11 µM | 
47 | COc1ccc(-c2[nH]n(-c3ccc([N+](=O)[O-])cc3)c(=O)c2C=NCc2ccccc2)cc1 | inconclusive [activator, single point] | 
48 | COc1ccc(CCC(=O)NC2CCCc3ccccc32)cc1OC (configuration not stated) |  | inactive: 8.58%

Row | SMILES | Potency | activity, positive = re-replication
49 | Cc1ccc(-c2csc(=Nc3cccnc3)n2CCCn2ccnc2)cc1C | inconclusive [activator, single point] | 
50 | Cc1ccc(C)c(CN2CCC(CNC(=O)Nc3ccc(F)c(Cl)c3)CC2)c1 | active: 25.9 µM | 
51 | COc1ccc(C(=O)OCC(=O)c2c[nH]c3ccccc23)cc1OC |  | inactive: 19.3%
52 | COc1ccc(-n2nc3cc(C)c(NC(=S)NC(=O)c4ccccc4C)cc3n2)cc1 | active: 3.66 µM | 
53 | Cc1c(NC(=O)c2cc3ccccc3oc2=O)c(=O)n(-c2ccccc2)n1C |  | inactive: -4.25%
54 | COc1ccc(-c2onc(C)c2-c2cnn(-c3ccccc3)c2)c(O)c1C | inconclusive [activator, single point] | 
55 | CC(=O)Nc1c(Br)cc2c(c1Br)Cc1cc(Br)ccc1-2 | inconclusive [activator, single point] | 
56 | Cc1ccccc1C1CCCN(C(=O)c2cc(COc3c(F)cccc3F)on2)C1 (configuration not stated) |  | inactive: -3.53%
57 | CC1CCCCC1NC(=O)CCCn1c(=S)[nH]c2ccccc2c1=O (configuration not stated) |  | inactive: 2.88%
58 | CCC(NCc1cccnc1)c1ccc(OC)c(OC)c1 (configuration not stated) |  | inactive: -0.976%
59 | Cc1ccc(Sc2nc(-c3ccccc3)nnc2C(F)(F)F)cc1 | active: 8.2 µM | 
60 | Cc1nc(C(=O)NNC(=O)c2ccc(Cl)cc2)cs1 | inconclusive [activator, single point] | 
61 | Cc1cccc(N2C(=O)C(Oc3ccc(Cl)cc3Cl)C2C(=O)O)c1C (configuration not stated) |  | inactive: 0.949%
62 | COc1cc(C(=O)Nc2cccc3cccnc23)cc(OC)c1OC | inconclusive [activator, partial curve, poor fit] | 
63 | CC(C)(C)OC(=O)N(CCc1ccccc1)Cc1ccccc1OCc1cccc(NC(=O)C2CCC2)c1 |  | inactive: -3.68%
64 | O=c1c2cnn(-c3ccccc3)c2ncn1Cc1ccccc1F | inconclusive [activator, single point] | 
65 | COCCOc1ccc(C(F)(F)F)cc1NC(=O)COC(=O)Cc1c[nH]c2ccccc12 |  | inactive: 5.27%
66 | Cc1c([N+](=O)[O-])cc(C(=O)Nc2ccc3ncccc3c2)cc1[N+](=O)[O-] | inconclusive [activator, single point] | 
67 | CN1CC(=O)N2C(c3cccc([N+](=O)[O-])c3)c3[nH]c4ccccc4c3C[C@H]2C1=O (some centres not stated) | inconclusive [activator, single point] | 
68 | COc1ccc2occ(C(=O)c3ccccc3)c2c1 |  | inactive: 1.97%
69 | CN1CCN(c2ccc(C(F)(F)F)cc2NC(=O)Nc2ccccc2)CC1 |  | inactive: -0.147%
70 | COc1ccc(OC)c(C2=NOC(C(=O)NCc3ccco3)C2)c1 (configuration not stated) | active: 13 µM | 
71 | Cc1cc2cc(C(c3nnnn3CC3CCCO3)N3CCCc4ccccc43)c(=O)[nH]c2cc1C (configuration not stated) | inconclusive [activator, single point] | 
72 | COCCNC(=O)C(c1ccccc1)N(Cc1cccs1)C(=O)Cn1nnc2ccccc21 (configuration not stated) | inconclusive [activator, partial curve, poor fit] | 
